Source: the supplement of paper PMC4604168 (melanoma cell lines)
Some of the results follow. Single values are uncertain, as repeats are few or missing.
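Also: cells treated in 1,536-well plates, then fixed and DAPI-stained, with nuclei counted from automated high-throughput microscope images.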

These compounds were tested on SkMel28 (assay: cell count relative to DMSO control; melanoma cells; higher = more viable cells). Conditions: library dose: standard library concentration; 72 h.
With `CS(=O)(=O)CCNCc1ccc(-c2ccc3ncnc(Nc4ccc(OCc5cccc(F)c5)c(Cl)c4)c3c2)o1` [lapatinib] + O=C(O)C(=O)Nc1sc2c(c1C(=O)O)CCNC2 [TCS401] (first compound 4 µM, partner dose 8.33333 µM) the cell count was 98%. In the case of `CN1CCN(c2ccc3nc(-c4c(N)c5c(F)cccc5[nH]c4=O)[nH]c3c2)CC1` [Dovitinib] + N#Cc1c(O)c2c(-c3ccc(-c4ccccc4O)cc3)csc2[nH]c1=O [A769662] (first compound 0.5 µM, partner dose 10 µM), the cell count is reported as 69.6%. Work on `C[C@@H](Oc1cc(-c2cnn(C3CCNCC3)c2)cnc1N)c1c(Cl)ccc(F)c1Cl` [Crizotinib] + O=C(Nc1ccccc1)c1cc([N+](=O)[O-])ccc1Cl [GW9662] (first compound 1 µM, partner dose 10 µM) yielded a cell count of 60.8%.

What follows are compounds tested on SkMel2 in the same assay as above. Conditions: library dose: standard library concentration; 72 h.
With `CS(=O)(=O)CCNCc1ccc(-c2ccc3ncnc(Nc4ccc(OCc5cccc(F)c5)c(Cl)c4)c3c2)o1` [lapatinib] + COc1cc2ncnc(Nc3ccc(Oc4ccccc4)cc3)c2cc1OC [SrcI1] (first compound 4 µM, partner dose 10 µM) the cell count was 67.9%. Work on `CNC(=O)c1cc(Oc2ccc(NC(=O)Nc3ccc(Cl)c(C(F)(F)F)c3)cc2)ccn1` [sorafenib] + COc1ccc2c(c1)CCC1C2CCC2(C)C(NCCCCCCN3C(=O)C=CC3=O)CCC12 [U73122] (first compound 2 µM, partner dose 2 µM) yielded a cell count of 84.2%. Work on `CNC(=O)c1cc(Oc2ccc(NC(=O)Nc3ccc(Cl)c(C(F)(F)F)c3)cc2)ccn1` [sorafenib] + Cc1cc([N+](=O)[O-])ccc1NS(=O)(=O)c1cc(Cl)ccc1Cl [FH535] (first compound 2 µM, partner dose 5 µM) yielded a cell count of 69%. With `CN1CCN(c2ccc3nc(-c4c(N)c5c(F)cccc5[nH]c4=O)[nH]c3c2)CC1` [Dovitinib] + CCc1ccc(CCOc2ccc(CC3SC(=O)NC3=O)cc2)nc1 [pioglitazone] (first compound 0.5 µM, partner dose 10 µM) the cell count was 72.9%. Compound `C=CCNC1=C2C[C@@H](C)C[C@H](OC)[C@H](O)[C@@H](C)/C=C(\C)[C@H](OC(N)=O)[C@@H](OC)/C=C\C=C(/C)C(=O)NC(=CC1=O)C2=O` [Tanespimycin] + N#Cc1c(O)c2c(-c3ccc(-c4ccccc4O)cc3)csc2[nH]c1=O [A769662] (first compound 0.01 µM, partner dose 10 µM) has a cell count of 92.4%. In the case of `C[C@@H](Oc1cc(-c2cnn(C3CCNCC3)c2)cnc1N)c1c(Cl)ccc(F)c1Cl` [Crizotinib] + Oc1nc(-c2ccc(C(F)(F)F)cc2)nc2c1CSCC2 [XAV939] (first compound 1 µM, partner dose 10 µM), the cell count is reported as 75.6%. Compound `CS(=O)(=O)CCNCc1ccc(-c2ccc3ncnc(Nc4ccc(OCc5cccc(F)c5)c(Cl)c4)c3c2)o1` [lapatinib] + O=c1cc(-c2cccc3c2Sc2ccccc2S3)oc(N2CCOCC2)c1 [KU55933] (first compound 4 µM, partner dose 5 µM) has a cell count of 79.7%. Compound `C=CCNC1=C2C[C@@H](C)C[C@H](OC)[C@H](O)[C@@H](C)/C=C(\C)[C@H](OC(N)=O)[C@@H](OC)/C=C\C=C(/C)C(=O)NC(=CC1=O)C2=O` [Tanespimycin] + CCN(CC)CCCCNc1ncc2cc(-c3cc(OC)cc(OC)c3)c(NC(=O)NC(C)(C)C)nc2n1 [PD173074] (first compound 0.01 µM, partner dose 0.5 µM) has a cell count of 89.9%. `CS(=O)(=O)CCNCc1ccc(-c2ccc3ncnc(Nc4ccc(OCc5cccc(F)c5)c(Cl)c4)c3c2)o1` [lapatinib] + CCc1ccc(CCOc2ccc(CC3SC(=O)NC3=O)cc2)nc1 [pioglitazone] (first compound 4 µM, partner dose 10 µM) was tested, and the cell count was 77.8%. For `CN1CCN(c2ccc3nc(-c4c(N)c5c(F)cccc5[nH]c4=O)[nH]c3c2)CC1` [Dovitinib] + COc1cc(N2CCC(N3CCN(C)CC3)CC2)ccc1Nc1ncc(Cl)c(Nc2ccccc2S(=O)(=O)C(C)C)n1 [NVP-TAE684] (first compound 0.5 µM, partner dose 0.4 µM), the cell count was 37.5%. `CS(=O)(=O)CCNCc1ccc(-c2ccc3ncnc(Nc4ccc(OCc5cccc(F)c5)c(Cl)c4)c3c2)o1` [lapatinib] + COc1ccc2c(c1)CCC1C2CCC2(C)C(NCCCCCCN3C(=O)C=CC3=O)CCC12 [U73122] (first compound 4 µM, partner dose 2 µM) showed a cell count of 77.1%. In the case of `CNC(=O)c1cc(Oc2ccc(NC(=O)Nc3ccc(Cl)c(C(F)(F)F)c3)cc2)ccn1` [sorafenib] + CCN(CC)CCCCNc1ncc2cc(-c3cc(OC)cc(OC)c3)c(NC(=O)NC(C)(C)C)nc2n1 [PD173074] (first compound 2 µM, partner dose 0.5 µM), the cell count is reported as 89.7%. `C=CCNC1=C2C[C@@H](C)C[C@H](OC)[C@H](O)[C@@H](C)/C=C(\C)[C@H](OC(N)=O)[C@@H](OC)/C=C\C=C(/C)C(=O)NC(=CC1=O)C2=O` [Tanespimycin] + CCCCCCCCCCCC1=C(O)C(=O)C=C(O)C1=O [Embelin] (first compound 0.01 µM, partner dose 6 µM) gave a cell count of 78.9%. `C=CCNC1=C2C[C@@H](C)C[C@H](OC)[C@H](O)[C@@H](C)/C=C(\C)[C@H](OC(N)=O)[C@@H](OC)/C=C\C=C(/C)C(=O)NC(=CC1=O)C2=O` [Tanespimycin] + COc1ccc2c(c1)CCC1C2CCC2(C)C(NCCCCCCN3C(=O)C=CC3=O)CCC12 [U73122] (first compound 0.01 µM, partner dose 2 µM) showed a cell count of 74.7%. `CNC(=O)c1cc(Oc2ccc(NC(=O)Nc3ccc(Cl)c(C(F)(F)F)c3)cc2)ccn1` [sorafenib] + O=C1NC(=O)/C(=C/c2ccc(-c3ccc(F)cc3O)o2)S1 [AS252424] (first compound 2 µM, partner dose 5 µM) gave a cell count of 84.5%. `CN1CCN(c2ccc3nc(-c4c(N)c5c(F)cccc5[nH]c4=O)[nH]c3c2)CC1` [Dovitinib] + Oc1nc(-c2ccc(C(F)(F)F)cc2)nc2c1CSCC2 [XAV939] (first compound 0.5 µM, partner dose 10 µM) was tested, and the cell count was 65.8%. With `CS(=O)(=O)CCNCc1ccc(-c2ccc3ncnc(Nc4ccc(OCc5cccc(F)c5)c(Cl)c4)c3c2)o1` [lapatinib] + CCCCCCCCCCCC1=C(O)C(=O)C=C(O)C1=O [Embelin] (first compound 4 µM, partner dose 6 µM) the cell count was 73.8%. For `CN1CCN(c2ccc3nc(-c4c(N)c5c(F)cccc5[nH]c4=O)[nH]c3c2)CC1` [Dovitinib] + COc1ccc(-c2ccc3c(N4CCOCC4)nc(N4C[C@@H](C)O[C@@H](C)C4)nc3n2)cc1CO [KU0063794] (first compound 0.5 µM, partner dose 0.1 µM), the cell count was 89.9%. `C=CCNC1=C2C[C@@H](C)C[C@H](OC)[C@H](O)[C@@H](C)/C=C(\C)[C@H](OC(N)=O)[C@@H](OC)/C=C\C=C(/C)C(=O)NC(=CC1=O)C2=O` [Tanespimycin] + COc1ccc(-c2ccc3c(N4CCOCC4)nc(N4C[C@@H](C)O[C@@H](C)C4)nc3n2)cc1CO [KU0063794] (first compound 0.01 µM, partner dose 0.1 µM) showed a cell count of 80.8%. `CN1CCN(c2ccc3nc(-c4c(N)c5c(F)cccc5[nH]c4=O)[nH]c3c2)CC1` [Dovitinib] + COc1cc2ncnc(Nc3ccc(Oc4ccccc4)cc3)c2cc1OC [SrcI1] (first compound 0.5 µM, partner dose 10 µM) gave a cell count of 63.6%. Work on `C=CCNC1=C2C[C@@H](C)C[C@H](OC)[C@H](O)[C@@H](C)/C=C(\C)[C@H](OC(N)=O)[C@@H](OC)/C=C\C=C(/C)C(=O)NC(=CC1=O)C2=O` [Tanespimycin] + O=c1cc(-c2cccc3c2Sc2ccccc2S3)oc(N2CCOCC2)c1 [KU55933] (first compound 0.01 µM, partner dose 5 µM) yielded a cell count of 71.9%. For `C=CCNC1=C2C[C@@H](C)C[C@H](OC)[C@H](O)[C@@H](C)/C=C(\C)[C@H](OC(N)=O)[C@@H](OC)/C=C\C=C(/C)C(=O)NC(=CC1=O)C2=O` [Tanespimycin] + COc1ccc(COc2ccc(Cc3cnc(N)nc3N)cc2OC)cc1 [GW2580] (first compound 0.01 µM, partner dose 5 µM), the cell count was 85.5%. With `CNC(=O)c1cc(Oc2ccc(NC(=O)Nc3ccc(Cl)c(C(F)(F)F)c3)cc2)ccn1` [sorafenib] + N#Cc1c(O)c2c(-c3ccc(-c4ccccc4O)cc3)csc2[nH]c1=O [A769662] (first compound 2 µM, partner dose 10 µM) the cell count was 95.7%. Compound `CN1CCN(c2ccc3nc(-c4c(N)c5c(F)cccc5[nH]c4=O)[nH]c3c2)CC1` [Dovitinib] + O=C1NC(=O)/C(=C/c2ccc(-c3ccc(F)cc3O)o2)S1 [AS252424] (first compound 0.5 µM, partner dose 5 µM) has a cell count of 48.8%. With `CNC(=O)c1cc(Oc2ccc(NC(=O)Nc3ccc(Cl)c(C(F)(F)F)c3)cc2)ccn1` [sorafenib] + O=C(O)C(=O)Nc1sc2c(c1C(=O)O)CCNC2 [TCS401] (first compound 2 µM, partner dose 8.33333 µM) the cell count was 89.8%. Compound `C[C@@H](Oc1cc(-c2cnn(C3CCNCC3)c2)cnc1N)c1c(Cl)ccc(F)c1Cl` [Crizotinib] + COc1cc2ncnc(Nc3ccc(Oc4ccccc4)cc3)c2cc1OC [SrcI1] (first compound 1 µM, partner dose 10 µM) has a cell count of 87.4%.
